Reference: PubChem BioAssay AID686970 (National Center for Advancing Translational Sciences (NCATS), 2013)
Screen size: about 360,000 compounds; about 6,000 (1.7%) were called active. Inconclusive means that the source gave no clear call. Such entries were picked first, then a sample of the others. The call rests on the fitted dose curve; in most records, active means well fitted cell-killing curve with a large enough effect; inconclusive means small, poorly fitted or top-dose-only effect, or effect the other way; inactive means flat fitted curve, though single readings scatter. Potencies of inconclusive entries are left out as doubtful fits.

Assay: qHTS for induction of synthetic lethality in tumor cells producing 2HG: qHTS for the HT-1080-NT fibrosarcoma cell line;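 further: NT is the 2HG producing partner of a matched IDH1 knockdown line; nearly all actives have a fitted effect of over 55% in size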;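 on activity, negative = less viability: 0% = DMSO-treated cells and -100% = media-only wells without cells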
Conditions: HT-1080-NT fibrosarcoma viability, CellTiter-Glo ATP luminescence, 48 h; activity, negative = less viability: at 46.1 µM (top of the series) unless noted
Outline: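 Fibrosarcoma NT cells, 750 per well in 5% FBS RPMI, were exposed to compound for 48 hours. Viability: CellTiter-Glo luminescence.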
Potency means the concentration at half of the fitted maximal effect; tags describe the fitted curve by direction and shape.

For `CCOC1=C2[C@H](c3ccccc3)N(S(=O)(=O)c3ccc(C)cc3)C(C(C)(C)C)[C@H]2n2c(=O)n(-c3ccccc3)c(=O)n2C1` (stereo partly specified), which “activity, negative = less viability” value is on record?
Its value is inactive: 8.08%.

With `Cc1cc(C)nc(NS(=O)(=O)c2ccc(NC(=O)CCCN3C(=O)c4ccccc4C3=O)cc2)n1` as the compound, how does the “activity, negative = less viability” value read?
Its value is inactive: 0%.

Which Potency does the source give for `C=CCNC(=S)Nc1sc2c(c1C(=O)OCC)CC(C)(CC)OC2` (stereo unspecified) here?
Its Potency is inconclusive [cytotoxic, single point].

Which Potency does the source give for `Cc1ccc(S(=O)(=O)n2c(N)nc3cc(C)c(C)cc32)cc1` here?
Its Potency is inconclusive [cytotoxic, single point].

With `N=c1c2c(-c3ccccc3)c(-c3ccccc3)n(Cc3ccccc3)c2ncn1CCCO` as the compound, how does the Potency read?
The Potency was inconclusive [cytotoxic, single point].

With `NS(=O)(=O)c1cccc(Nc2nc3ccccc3nc2NS(=O)(=O)c2ccc(Cl)cc2)c1` as the compound, how does the Potency read?
Its Potency is active: 18.4 µM.

With `Cc1cc(C)n2nc(C(=O)NCc3cccc(C(F)(F)F)c3)nc2n1` as the compound, how does the “activity, negative = less viability” value read?
The value was inactive: -17%.

For `O=C(CCc1ccccc1)NNC(=O)Nc1ccc(Cl)cc1`, which “activity, negative = less viability” value is on record?
The value was inactive: 18.5%.

For `CC12CC3CC(C)(C1)CC(C(=O)NC(=S)N1CCOCC1)(C3)C2`, which Potency is on record?
The Potency was active: 11.2 µM.

For `COc1ccc(CCNC(=S)NC(=O)/C=C/c2ccc(C)cc2)cc1OC`, which Potency is on record?
Its Potency is active: 6.31 µM.

With `Cc1cc(Cl)ccc1OCC(=O)N(Cc1ccco1)C1CCS(=O)(=O)C1` (stereo unspecified) as the compound, how does the “activity, negative = less viability” value read?
The value was inactive: -1.49%.

Which Potency does the source give for `O=C(Nc1ncc([N+](=O)[O-])s1)c1ccc2c(c1)OCO2` here?
Its Potency is active: 14.6 µM.

With `Cc1nn(Cc2ccccc2)c2ncccc12` as the compound, how does the “activity, negative = less viability” value read?
Its value is inactive: -0.471%.

For `O=C(Nc1cccc(S(=O)(=O)N2CCCCC2)c1)c1ccc(S(=O)(=O)C(F)F)cc1`, which “activity, negative = less viability” value is on record?
Its value is inactive: -0.498%.

With `CCOc1ccc(Cl)cc1-c1cc(C(=O)Nc2cc(OC)ccc2OC)[nH]n1` as the compound, how does the Potency read?
The Potency was inconclusive [rising, partial curve].

For `COc1ccccc1CNC(=O)CCc1nc2ccccc2c(=O)[nH]1`, which “activity, negative = less viability” value is on record?
Its value is inactive: -0.769%.

For `COc1ccc(NC(=O)CSc2ccc3nnc(-c4ccccn4)n3n2)c(OC)c1`, which “activity, negative = less viability” value is on record?
The value was inactive: 2.53%.

For `O=C(COC(=O)c1cc(S(=O)(=O)N2CCCCC2)ccc1N1CCOCC1)NC1CCS(=O)(=O)C1` (stereo unspecified), which Potency is on record?
The Potency was inconclusive [rising, single point].

Which Potency does the source give for `O=C(NNC(=O)c1ccccc1O)c1ccc(Cl)c(S(=O)(=O)N2CCCCC2)c1` here?
The Potency was inconclusive [cytotoxic, partial curve, poor fit].

Which “activity, negative = less viability” value does the source give for `COc1ccc(CN(C(=O)CN2C(=O)c3ccccc3S2(=O)=O)C(C(=O)NCC2CCCO2)c2ccco2)cc1` (stereo unspecified) here?
Its value is inactive: 12.5%.

Which Potency does the source give for `Cc1cc(NC(=O)COC(=O)C(Nc2ccc(C(F)(F)F)cc2Cl)C(C)C)no1` (stereo unspecified) here?
The Potency was active: 18.4 µM.
